Results taken from a collection of fitness landscapes (doi:10.1016/j.celrep.2020.107928).
In all, about 81,000 sequences were measured (“one-hybrid fitness for binding parS DNA”: median about -0.17, highest 2% from about 0.51 on). This is one part of the list.

B1: Caulobacter ParB omega fusion; a variant is named by its letters at X, in order, B8GW30 (parent)
chain: MESVVVGEPGMSEGRRGLGRGLSALLGEVDAAPAQAPGEQLGGSREAPIEILQRNPDQPRRTFREEDLEDLSNSIREKGVLQPILVRPSPDTAGEYQIVAGERAWRAAQRAGLKTVPIMVRELDDLAVLEIGIIENVQRADLNVLEEALSYKVLMEKFERTQENIAQTIGKSXSHVANXMRLLXLPDEVQSYLVSGELTAXHARAIAAAADPVALAKQIIEGGLSVRETEALARKAPNLSAGKSKGGRPPRVKDTDTQALESDLSSVLGLDVSIDHRGSTGTLTITYATLEQLDDLCNRLTRGI

Variants of: B1
Assay: one-hybrid fitness for binding parS DNA (scaled: cognate 1, non-cognate 0); higher = stronger binding
Settings: with parS DNA site
How it was run: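 On M9-minus-histidine containing 0.1 mM IPTG and 5 mM 3-AT, E. coli USO cells with a HIS3 reporter, site 19 bp from the promoter, grew 48 hours at 37°C to select Caulobacter ParB libraries randomised at four specificity codons. Plasmids from before and after were Illumina-sequenced, with three replicate libraries pooled and variants under 10 reads left out. Fitness is the log change in variant-to-wild-type read ratio, rescaled against cognate and non-cognate.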

one-hybrid fitness for binding parS DNA, 0.246:
RTFH

one-hybrid fitness for binding parS DNA, 0.841:
RFFS

one-hybrid fitness for binding parS DNA, 0.341:
RTYM

one-hybrid fitness for binding parS DNA, 0.91:
RFAC

one-hybrid fitness for binding parS DNA, ≤ 0.2:
LRAC
CETS
WNPV
NRQK
PQSG
RGMQ
QGNI
STGT
TDCG
RYNQ
PNYC
ETTT
LGNW
HCRR
VMQT
LYNV
SPVY
QKSI
ARVG
VKRM
SEGC
VVVK
GNVS
GKQC
SIIL
QQAF
CRKC
LDPS
PLKH
GAVW
WTPG
CPLQ
DYKT
QYHF
EYKV
WNVE
SQPG
QATG
GFQR
SNSP
PVPT
DLVL
IAKC
HYNC
QCRW
KSLM
WHTT
QLEE
PLQV
LHEE
IPNY
SITC
TRRT
HYLT
DHHS
CSSL
TKWK
ADYS
PCRM
YQQL
PGCG
PHVP
FANV
VMLT
HAAF
AKQS
CTSS
SHLF
AEVC
RPIC
LDCR
HGEG
CLFT
TNIN
LQLR
HVHY
FSYN
LDVV
FVDV
HLDP
CTPE
RDHM
HVSD
IKVA
AHQC
QQYI
APMP
RYSE
DPWF
LFYY
ETAF
ILFD
HPYC
MLIT
AFGF
RNSF
DAME
SHDP
NHQG
HLAL
NACN
VQLS
VVTD
AFHF
VQTV
KGKL
AQVF
FCDS
SLDW
PGYC
RHRE
VQMG
SWLV
QTTG
HLHC
TGYC
RNGF
DLLY
HTAH
RPSS
LSIG
DTWD
RNLW
SMHQ
PGER
MKAG
QLLA
RPAT
MLDL
PETI
EVLW
DQTY
MVEC
DESE
AQAA
QYRH
NDYD
HGAA
SHNH
GRDK
HFNR
VAYA
WLAT
RHDP
SDSA
KIQG
LPCI
GDHS
DNTS
YMNS
RPAM
LKER
PLHI
LICG
VIFT
QQMV
LEFR
PRSN
QMLE
KRDM
EWQP
GRSG
HRTF
SITN
HPDW
IIHR
RVNR
SWDR
VVEP
GLTV
DQPG
RYPH
MNMT
RPAF
QSQG
ADQW
VRMF
SSEV
YTPF
HEYW
QGPC
INRY
KLHG
QFRI
VMYY
SLNE
HIWV
IECR
PCIT
FSRF
QEHC
NHKI
VNYE
YVRM
DKHS
AIYN
LHPF
HPLC
DCYT
QCYC
RNPA
ERKK
LPQN
ENAW
CMHS
QPWG
VPML
DDQP
SNLG
TPMA
ITAF
IEPC
FIPG
CGSY
GSRI
PPAG
PNTD
YPHM
SISM
NHGG
LNGS
WLHV
YHYR
LRVN
VTIG
QIPW
DPNK
QAVD
KRAE
NLDW
NWHF
WVAR
QCHL
PWVK
PQYL
QPFG
LWNL
LEHG
IICS
QSNT
CPYD
QPMF
ELEI
QCGM
IRQA
QNGA
PAKK
EKLG
WTEC
TEDK
NRLS
AGTY
HGVT
ICSC
AQQS
VRPA
VLVW
PNFY
HFRL
SVVI
VFPV
RNKI
NMDR
LRSC
GPTV
NPTR
YKQG
EMRM
ANSE
TVNF
CKDC
IHVK
KASG
FLHS
TKHD
PLLN
RWLL
APCT
ILTK
ADMR
MCRN
YLPL
EALS
LSTG
HDTC
DRLT
RKAP
KEQC
GYWR
AVES
AINS
CGRK
NLLS
ENHY

one-hybrid fitness for binding parS DNA, 0.706:
RRRG

one-hybrid fitness for binding parS DNA, 0.402:
RKLY

one-hybrid fitness for binding parS DNA, 0.788:
RWMS

one-hybrid fitness for binding parS DNA, 0.319:
RQSM

one-hybrid fitness for binding parS DNA, 0.349:
RCNM

one-hybrid fitness for binding parS DNA, 0.536:
RKDA

one-hybrid fitness for binding parS DNA, 0.757:
RYIC

one-hybrid fitness for binding parS DNA, 0.396:
RYLN
